This is one part of the list.
test system: PF3D7_0420300 AP2 domain 1 (GST-tagged); assay: gcPBM binding intensity (ln(normalized median fluorescence intensity)); higher = stronger DNA binding
In short: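 DNA-binding domains from P. falciparum, fused to GST and produced in E. coli, were put on an Agilent 4 × 180k double-stranded probe array for 1 h in 1× PBS holding 1% milk, 0.2 mg/ml BSA, 0.5% salmon testes DNA and 0.03% Triton X-100. Probes were primer-extended, 36 bp long and drawn from intergenic genomic regions, with negative controls included. After Alexa488 anti-GST antibody detection and a 488 nm scan, binding intensity was set as the highest Masliner-normalised natural-log median intensity across replicate spots of either probe orientation.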

| Sequence | gcPBM binding intensity (ln) |
| --- | --- |
| AAGTTAATGAAAAAATGTACCCAGAGTATTTTAAAA [XGTACX_site2997] | 9.28 |
| AAAAAAAAAAAAGATTGTACAGAATACTTTTAAAAT [XGTACX_site3576] | 8.99 |
| TTGTTTTTCTTTGAATGTACTTAATGATTTCCAATT [XGTACX_site2499] | 9.31 |
| TCCATATATTTTAAAAGTACACATAAAAATTATTTA [XGTACX_site8127] | 8.93 |
| AATGGAAAAATAGGCACACACACATATATACATATA [CACACA_site1298] | 10.2 |
| AAAATACTAGATAGGGGAAAAAAAAAAAAAAAAAAA [CACACA_negctrl_site1732] | 8.44 |
| TATTGTAATATTAGCACACATTACCTCACTACAAAT [CACACA_site5419] | 9.42 |
| AACATGAAAATATATGCATTTGTATATATATATATA [TGCATGCA_negctrl_site16] | 9.11 |
| AATAAAACCCCGAAATCACACATTAAATGAAAAATA [CACACA_site4732] | 9.61 |
| AAAGCACCCATGCACACACACAAAGGAAAAGAAAAA [CACACA_site6249] | 9.91 |
| ATAAATGATAAAATTGCATGTGAATGTGAAAATATT [TGCATGCA_site251] | 9.49 |
| TGGGAAAATAATATTTATTTTATATATAAATATATA [CACACA_negctrl_site121] | 8.79 |
| AATTTAAAAGAAAAAGAAAAATAATAAACAGAAGCA [XGTACX_negctrl_site503] | 9.68 |
| ATAAAAAATAAATATATACATACATACATACATATA [XGTACX_negctrl_site507] | 9.43 |
| ATAAAACAAAAATATAAACACACATACATTGGTTTT [CACACA_site8809] | 9.69 |
| TTTTCAAAAATATACACACACATAAATATAGGTATA [CACACA_site6506] | 9.79 |
| TTGATTTACTATAGATGTACGTAAAATATAAATAAA [XGTACX_site8256] | 8.95 |
| GTTTCAAAATTAAACACACACAAAAAAAAAAAAAAA [CACACA_site2680] | 9.22 |
| TATTATATCTTTATTATTCATCTAAAATTTGTATTT [TGCATGCA_negctrl_site233] | 9.19 |
| ACATTATATCTAAGTACACACATTAATTTTTTTTTT [CACACA_site7850] | 9.5 |
| CTATAACCTCTGTTCACACATATATCATAATTTACA [CACACA_site5446] | 9.54 |
| TTTATTTTGATTTAATGTACAAATAGTAAAACAAAA [XGTACX_site4789] | 8.97 |

| Sequence | gcPBM binding intensity (ln) |
| --- | --- |
| TATTTAAAAGCATATACACACAACTGGAATGAAAAG [CACACA_site6128] | 9.79 |
| TTGTAAGAAAAACACACACACACATATATATATATA [CACACA_site795] | 9.95 |
| TTTTCGGATAATAATTGTACGAAACATTTAAAAAAA [XGTACX_site8898] | 8.88 |
| TATATAATATATATATGTACACATATACATTTTTAT [XGTACX_site2832] | 9.26 |
| TAAATAGTTATAAAAGTGCAAAAAAAAAAAAAAAAA [GTGCAC_site9550] | 8.61 |
| ACTCAAAATTATAATTGTACAAATGCTTTGTTTAAT [XGTACX_site3437] | 9.28 |
| ATCATATATGTTATTACACACGTTATGTTATTATAA [CACACA_site2712] | 9.45 |
| TTAATTTCAAGTAGAAGTACTTTTATGATTGTGAGG [XGTACX_site1247] | 8.94 |
| GTGCATAGATGATATACACACAATATAATAGTATGT [CACACA_site5373] | 9.54 |
| TATAATTTAGCTTGTGCATGCAGGTGCTACATTTGT [TGCATGCA_site217] | 9.06 |
| TATATATATATATACACACACATATATATATATATA [CACACA_site1346] | 9.29 |
| GCATAAGAAATAAATAGTACACACATAGACACACAC [XGTACX_site3095] | 10 |
| ATAAGATATGTATATACACACATTTATTTACATATA [CACACA_site3263] | 9.54 |
| CGCACAAAAATATACACACACACATCTATATTTATT [CACACA_site7675] | 10 |
| AAAACAAATGAGTACACACACATAAAAGTTGAAAAT [CACACA_site6238] | 10 |
| TACCCATATTAATATGTGCGCATATAAAAGTCAAAC | 9.28 |
| TTTTTTTAAACTGAAAGTACTTATTCCAAGAAAATA [XGTACX_site50] | 8.64 |
| ATATATATATCAACAACACACGATTAACTAAAAAAA [CACACA_site302] | 9.59 |
| ATAATGACTAAATTTAAACACACAAGGGGAGTTTAC [CACACA_site8209] | 9.51 |
| CCTTATTATTATTTTACACACGTCCTAATAAGAGGA [CACACA_site1319] | 9.2 |
| TATTTAAAAATATATACACACATTTTATATTATTAT [CACACA_site781] | 9.42 |
| AATATATAAATAAATACACACATAAAATAGAAATAT [CACACA_site1663] | 10 |

| Sequence | gcPBM binding intensity (ln) |
| --- | --- |
| AAAAACAAAAAAGAAGCACACATATATATATATATA [CACACA_site8779] | 9.6 |
| TTTATCTGATATATTACACACAAAAAAAAAAAAAAA [CACACA_site7637] | 9.18 |
| AATATTATATATATGGGTACTAATTCCTTTAATTTC [XGTACX_site102] | 9.14 |
| TATTTTACAAAATAAGGTACGTAAATATATGGTAGG [XGTACX_site2133] | 9.47 |
| AAATATCTTTTATATTGTACATATTCCTTATGTGGA [XGTACX_site7638] | 9 |
| ATTTTTTTTATTTTTTCAATATATATATATATATAT [CACACA_negctrl_site1444] | 9.32 |
| TTATATATATATAATACACACATAATAATATATTTA [CACACA_site3038] | 9.39 |
| GAAATAGAAATAAAATAGGCATACAATAGAACTAAG [TGCATGCA_negctrl_site537] | 9.65 |
| TTATATATATATTATAGTACATATATAATATAGTAA [XGTACX_site6869] | 9.04 |
| ATATATGAGCAAAAATATATAAGATAACACATAAAT [CACACA_negctrl_site167] | 9.56 |
| TCTCTATAAATAAATACATGCATATAATAAAGAATT [TGCATGCA_site710] | 9.34 |
| CGTTATATATATAAAAGTACAAAAATTAAACATTCC [XGTACX_site4568] | 9.35 |
| ATATGTAAATAAATATGTACTCATTTATTATTTTAT [XGTACX_site8748] | 9.3 |
| ATATATACAAGTATTTTTTTTTCAAACATTATTTTT [CACACA_negctrl_site1808] | 9.15 |
| ATATGTATATTTTTTTGTACGTATTTATGTGTGTGT [XGTACX_site2093] | 9.92 |
| ATATTTTATGTGTTGGTGCACATCTTTATTTAAACT [GTGCAC_site9736] | 9.58 |
| ATATATATAATATAATGTACGTATAATAATATGAGA [XGTACX_site2282] | 9.46 |
| TAATAAATAAAATATGCACACAAATATAGGAAACAA [CACACA_site8820] | 9.85 |
| ATATATATATATATATGTACATAATAATATATATTA [XGTACX_site111] | 9.15 |
| TAAAAGGTGTATATAATACACACGTGGGATTAGAAT [CACACA_site610] | 9.47 |
| AAAATAAACAATGAACAATAAACAATGAACAATGAA [CACACA_negctrl_site1194] | 9.66 |
| TATATAAAGCATTGTAGTACTACCAATATTTTTTTT [XGTACX_site3523] | 9.2 |

| Sequence | gcPBM binding intensity (ln) |
| --- | --- |
| AAAAAATATACATATACACACATATGTATATAGAAT [CACACA_site2170] | 9.58 |
| AAAATATTATAAATTTGTACTTATAAATATTGTATA [XGTACX_site8165] | 8.98 |
| ATATGTTATATGTAATGTACTTTTGATGTATATATT [XGTACX_site8615] | 9.34 |
| TCGTACTTGTATTATGCACACATATAATTAAACATA [CACACA_site9089] | 9.52 |
| AATAATCAAATATTAAAAATTGTGCAAAAAAAAAAA [XGTACX_negctrl_site399] | 9.35 |
| AAAAAAAAAAATATATTATTTTACTTGTTTATTTTT [GTGCAC_negctrl_site435] | 9.15 |
| TATGAAAAAATATATACACACATAATAAAGGTATAT [CACACA_site3737] | 9.75 |
| TTTGTTTTAAATATTATACACACGTAAAAGTATAAT [CACACA_site7954] | 9.28 |
| TAATATTATATATAAACACACATACCCATGTAAATA [CACACA_site5170] | 9.6 |
| TAATTCGCAAAAGAAAGAAATTAAGAAAAAGAAAAA [XGTACX_negctrl_site614] | 8.82 |
| TTCAATAGTAAGTATACACACATATATATATATAAA [CACACA_site2687] | 9.38 |
| CAAGCTATGTATTCTACACACACATACACCCATATA [CACACA_site9133] | 9.98 |
| TTTCTTTTTTTTTTTTCATTGATCCATTTATGATTA [TGCATGCA_negctrl_site225] | 9.22 |
| TTTTTAAAAATATACACACACAGATATTATAGATAT [CACACA_site6511] | 9.79 |
| AGTATACATATATATACACACACACCGATATATATA [CACACA_site8357] | 10.1 |
| TTAATATATTAAATCTTACACACTAAAAAATATGTA [CACACA_site307] | 9.16 |
| TAAAAAAAATAAACGTGTACATAAAAATGAATATGT [XGTACX_site119] | 9.64 |
| AACGTTAAAAAAAAAATATATATAAGGAGAAAGCAC [XGTACX_negctrl_site338] | 9.9 |
| GAAAATATTATAGCACCACACACTTATTTTATATAT [CACACA_site2265] | 9.64 |
| TATGCGTCTTGCCTTGCACACTTTTATGAAAAAAAA [CACACA_site5174] | 9.22 |
| TATATATTTTTTAATTGTACACTTCAAAAACAAAAA [XGTACX_site5595] | 8.92 |
| ATAATCAACATTAGGTGTACAAAATATGTATGTTTT [XGTACX_site6696] | 9.3 |

From the supplement of paper PMC11417369
